In ChEMBL document CHEMBL1201862, “PubChem BioAssay data set” (2004):

system: NCI-H322M; test: NCI-60 cell line screen, 48 h

| Compound | GI50 |
| --- | --- |
| Cc1cn(C2CC(n3cc(Cn4cc(F)c(=O)[nH]c4=O)nn3)C(CO)O2)c(=O)[nH]c1=O (stereo unspecified) | inactive: > 100 µM |
| CSC1=Nc2ccccc2N=C(c2ccc(Cl)cc2)C1 | inactive: 25.2 µM |
| C=CC1(C(=O)O)CCC(C(C)(C)C)CC1 (stereo unspecified) | inactive: > 100 µM |
| COc1cc2cc(C(=O)N3CC(COS(C)(=O)=O)c4c3cc(N)c3ccccc43)[nH]c2c(OC)c1OC (stereo unspecified) | active: < 0.0331 µM |
| Cc1ccccc1-n1c(=O)sc2c(=O)n(-c3ccccc3)c(=S)[nH]c21 | inactive: > 100 µM |
| O=C(Oc1c(Cl)cc(C2(c3cc(Cl)c(OC(=O)c4ccccc4)c(Cl)c3)CCCCC2)cc1Cl)c1ccccc1 | inactive: 12.9 µM |
| CCOC(=O)c1csc(NC(=O)C(C)N2CCCCC2)n1 (stereo unspecified) | inactive: > 100 µM |
| O=C1NC2(CCCCC2)C(=O)N1CCN(CCCl)CCCl [SPIROMUSTINE] | inactive: > 250 µM |
| CCOC(=O)C(COS(C)(=O)=O)(COS(C)(=O)=O)C(=O)OCC | inactive: > 100 µM |
| N#Cc1nc2cc(Cl)ccc2nc1N1CCN(c2ccc([N+](=O)[O-])cc2)CC1 | inactive: > 100 µM |
| O=C(O)c1ccc(C2SCc3nc4ccccc4n32)cc1 (stereo unspecified) | inactive: > 100 µM |
| CN/C(=N\CCSCc1nc[nH]c1C)NC#N [CIMETIDINE] | inactive: > 100 µM |
| COC1=CC(c2ccc(Br)[nH]2)=N/C1=C/NCC(C)C | inactive: 3.41 µM |
| CSC1=N/C(=C\c2ccc(Cl)cc2)C(=O)N1CN1CCOCC1 | inactive: > 100 µM |
| CC(C)(C)c1ccc(-c2nc3ccccc3c(=O)o2)cc1 | inactive: > 100 µM |
| COc1cccc(CCn2c(N)c(-c3ccccc3)c3ccc([N+](=O)[O-])cc3c2=O)c1 | inactive: 3.02 µM |
| COC(=O)C1Cc2c(n(C)c3ccccc23)C(c2ccccc2)N1 (stereo unspecified) | inactive: > 100 µM |
| COc1ccc(Cc2nc3ccccc3s2)cc1OC | inactive: 26.4 µM |
| N#Cc1ccc(/N=C(/NCC(=O)O)Nc2cccc3ccccc23)cc1 | inactive: > 10 µM |
| O=C(Cc1ccccc1)NN1C(=O)/C(=C\c2ccc([N+](=O)[O-])cc2)S/C1=N\c1ccccc1 | inactive: > 100 µM |
| NC(=O)C(N)=O | inactive: > 100 µM |
| CC1=NN(c2nc(N)nc(C(C)Sc3cc(Cl)c(C)cc3S(N)(=O)=O)n2)C(C)(C)C1 (stereo unspecified) | inactive: > 10 µM |

| Compound | GI50 |
| --- | --- |
| C/C(=N\Nc1ccccc1Br)c1cccc(/C(C)=N/Nc2ccccc2Br)n1 | inactive: > 100 µM |
| O=C1CN(c2ccccc2)C(=O)C1C(=O)Nc1ccc(Cl)c(Cl)c1 (stereo unspecified) | inactive: 1.55 µM |
| C=CC(C)(C)C1(CC(OC)OC)C(=O)N(C)c2ccccc21 (stereo unspecified) | inactive: > 25 µM |
| O=c1c(Cc2c(O)oc3cc(O)ccc3c2=O)c(O)oc2cc(O)ccc12 | inactive: > 100 µM |
| C=C1C(=O)[C@@]23CC[C@@H]4[C@@]5(C)CCC[C@@]4(OC5=O)[C@@]2(C)CC[C@@H]1C3 | inactive: 4.69 µM |
| CCOC(=O)C12OC(CCC1=O)C(C(=O)OC)=C2C(=O)OC (stereo unspecified) | inactive: > 10 µM |
| CCCCn1c2c(c3ccccc3c1=O)C(=O)c1ccccc1-2 | inactive: > 100 µM |
| COC(=O)/C=C/C(=O)Nc1cc(Cl)c(Cl)cc1CC(=O)N(C)[C@H]1CCCC[C@@H]1N1CCCC1 | inactive: 17 µM |
| Nc1cc(C(=O)NC2C3CC4CC(C3)CC2C4)nc(S)n1 (stereo unspecified) | inactive: > 100 µM |
| CCOC(=O)C(Cc1ccc(N(CCCl)CCCl)cc1)NC(=O)C(Cc1ccccc1)NC(C)=O (stereo unspecified) | active: > 0.351 µM |
| COC(=O)C(C(=O)C(=O)Nc1nc2ccc(OC)cc2s1)c1cnc2ccccc2n1 (stereo unspecified) | inactive: > 100 µM |
| CCC(CS(=O)(=O)O)[N+](=O)[O-] (stereo unspecified) | inactive: > 100 µM |
| COc1ccc(/C=C2\N=C(N3CCOCC3)NC2=O)cc1 | inactive: > 100 µM |
| COc1cc(-c2c(C)c(C)nc(OC)c2C#N)cc(OC)c1OC | inactive: > 100 µM |
| CCOC(=O)c1ccc(NCc2ccc3oc(=O)c(-c4ccccc4)nc3c2)cc1 | inactive: > 100 µM |
| O=C(N/N=C/c1cccc(F)c1)c1ccncc1 | inactive: > 100 µM |
| COc1ccc(-n2/c(=N/C(=S)N(C)C)ss/c2=N\C(=S)N(C)C)cc1 | inactive: > 100 µM |
| O=[N+]([O-])c1ccc(-c2noc(-c3ccc(Cl)cc3)c2C2=NCCN2)cc1 | inactive: > 100 µM |
| COc1ccc(CNc2nc3cc(C(F)(F)F)ccc3nc2-c2ccccc2)cc1OC | inactive: 5.71 µM |
| O=C(Nc1ccn(C2CCC(COC(c3ccccc3)(c3ccccc3)c3ccccc3)O2)c(=O)n1)c1ccccc1 (stereo unspecified) | inactive: > 10 µM |
| CC12CCCCC1(C)C2Sc1ccccc1 (stereo unspecified) | inactive: > 100 µM |
| Clc1nc(Cl)c(-c2ccccc2)c(Cl)n1 | inactive: 13.5 µM |

| Compound | GI50 |
| --- | --- |
| C=C/C(C)=C/[C@H](C)C(=O)C[C@H](O)CC1CC(=O)NC(=O)C1 | inactive: 33.9 µM |
| CCCCC1(O)CC2CC1C(C)C2(C)C (stereo unspecified) | inactive: > 100 µM |
| Cc1ccc(NC(=O)c2cc(S(=O)(=O)Nc3n[nH]c(=O)[nH]3)c(SSc3cc(Cl)c(C(=O)Nc4ccc(C)cc4)cc3S(=O)(=O)Nc3n[nH]c(=O)[nH]3)cc2Cl)cc1 | inactive: > 100 µM |
| Cc1cc(C=O)c2c(=O)c3c(O)ccc(/C=C/C(C)C)c3oc2c1 | inactive: > 100 µM |
| O=C(N/C(=C\c1ccc(Br)cc1)c1nc2ccccc2[nH]1)c1ccccc1 | inactive: 19.6 µM |
| Cc1ccc(/N=C2\SC(=NN(C)C)S\C2=N/c2ccc(C)cc2)cc1 | inactive: > 100 µM |
| Fc1nc(-c2c3ccccc3c3sc4ccccc4n23)nc(N2CCOCCOCCOCCOCC2)n1 | inactive: > 100 µM |
| O=C(Cc1ccccc1)Nc1nc2ccc(Cl)cc2c2nc(-c3ccco3)nn12 | inactive: > 100 µM |
| CCO/C=N/C1=C(C#N)SC2=N/C(=C\c3ccccc3)C(=O)N21 | inactive: > 100 µM |
| CCCCOCCOCCOC1=C(Cl)C(=O)c2c(O)ccc(O)c2C1=O | inactive: 1.65 µM |
| CN(C)c1n/c(=N/Cc2ccncc2)ss1 | inactive: > 100 µM |
| CN(C)CCNC(=O)c1cccc2cc3c(Cl)cccc3nc12 | inactive: 1.61 µM |
| CCCCCCCC(CC(=O)NC(CO)C(=O)NC(CO)CC(C)C)OC(=O)CC(CCCCCCC)OC(=O)CC(CCCCCCC)OC1OC(C)C(O)C(OC2OC(C)C(OC(C)=O)C(O)C2O)C1O (stereo unspecified) | inactive: 10.9 µM |
| CCCCC1Nc2ccccc2-c2ccnc(Cl)c21 (stereo unspecified) | inactive: 26.5 µM |
| COc1ccc(CCNC(=O)CCCCCO)cc1OC | inactive: > 100 µM |
| c1ccc(C[N+]23CN4CN(CN(C4)C2)C3)cc1 | inactive: > 100 µM |
| CC(=O)C1=C(C)N(c2ccc(C)cc2)C2(O)C=CC(O)=C3C(=O)c4ccccc4C(=O)C312 (stereo unspecified) | inactive: 21.3 µM |
| O=c1c(O)c(-c2ccc(O)cc2O)oc2cc(O)cc(O)c12 [MORIN] | inactive: > 100 µM |
| C=C(C)COC(=O)COCC(=O)OCC(=C)C | inactive: > 100 µM |
| O=c1cc(N2CCNCC2)nc2ccccn12 | inactive: > 100 µM |
| O=C1C[C@H](c2ccccc2)C2(C(=O)c3ccccc3C2=O)[C@@H](c2ccccc2)C1 | inactive: 66.1 µM |
| CC1=CC[C@@H]2[C@@H](CC[C@@]2(C)O)C(C)(C)[C@H]1CC[C@@H]1[C@@]2(C)CC[C@@H](O)C(C)(C)O[C@@H]2CC[C@]1(C)O | inactive: 20.6 µM |

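Growth conditions: 96-well plates. Treatment: test compound, 48 hours, 5 concentrations. Analysis: linear interpolation between bracketing concentrations; unreached endpoints set to highest concentration. At the GI50, growth is halved.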 Calls of active or inactive are those of the source. Cut-off read from the data, not from the text of the source: active = GI50 up to about 1.1 µM and inactive = higher.
